The text below walks through data of paper PMC4748275, “SpyRing interrogation: analyzing how enzyme resilience can be achieved with phytase and distinct cyclization chemistries” (Scientific Reports, 2016).

One data set has as its target PhyC (Bacillus subtilis, UniProt O31097). Kind of data set: colorimetric phosphate release (molybdate, OD700). Particulars: 1.6 mM phytic acid, 100 mM Tris-HCl pH 7.5, 1 mM CaCl2, 37 °C. It counts as biochemical.
A further data set deals with SpyTag-PhyC-SpyCatcher (Bacillus subtilis, UniProt O31097). Kind of data set: colorimetric phosphate release (molybdate, OD700). The format is biochemical. Particulars: 1.6 mM phytic acid, 100 mM Tris-HCl pH 7.5, 1 mM CaCl2, 37 °C.
For data set [1], the system named is O=C(Cc1cccs1)N[C@@H]1C(=O)N2C(C(=O)O)=C(/C=C/c3ccc([N+](=O)[O-])cc3[N+](=O)[O-])CS[C@H]12. In words: purified protein. Particulars: 50 mM NaH2PO4 pH 7.0, 0.1% BSA, 30 °C, 10-100 μM nitrocefin.

Consider `O=P(O)(O)O[C@H]1[C@H](OP(=O)(O)O)[C@@H](OP(=O)(O)O)[C@H](OP(=O)(O)O)[C@@H](OP(=O)(O)O)[C@H]1OP(=O)(O)O` [phytic acid], for which the “colorimetric phosphate release (molybdate, OD700)” value on PhyC is “SpyTag-PhyC-SpyCatcher remained active, exhibiting comparable specific activity to PhyC”; at SpyTag-PhyC-SpyCatcher it was “SpyTag-PhyC-SpyCatcher remained active, exhibiting comparable specific activity to PhyC”.
For “Pilin-C-BLA-Isopeptag (Escherichia coli)”, in data set [1], the Km (in general, the substrate concentration at which the rate is half of its maximum) worked out at 130 ± 4 µM and the kcat – broadly, the maximal rate divided by the concentration of active sites – came out at 1400 ± 40 s⁻¹.
In the same order, the values of “SnoopTag-BLA-SnoopCatcher (Escherichia coli)” are 150 ± 10 µM and 1700 ± 100 s⁻¹.
As for “SpyTag-BLA-SpyCatcher (Escherichia coli)”, in data set [1], the Km came to 110 ± 6 µM and the kcat is 910 ± 40 s⁻¹.
